Results: US9974865B2, “Antibody drug conjugates (ADC) that bind to FLT3 proteins” (AGENSYS, INC., priority 2015, dated 2018)
“Also recorded” adds a separate entry of the source.

Assays:
OCI-AML2 cells = assay: FACS binding to cell lines; set-up: species or system human; conditions: OCI-AML2 (AML); antibody 10 ug/ml
Description: CHv62.21 was tested for binding to AML and B-ALL cell lines grown in vitro. (See, FIG. 15A-M). Briefly, CHv62.21 and an isotype matched control antibody were biotinylated using NHS LC biotin. In vitro, exponentially grown cancer cell lines were used for all experiments. Cells were harvested by and washed by centrifugation. Cells were Fc blocked to reduce non-specific binding. Antibodies were diluted to 10 ug/ml final concentration and co-incubated with cells at 4° C. for 1 hour. At the end of the incubation, cells were washed and incubated with secondary detection Streptavidin-PE antibody at a final 1:200 (2.5 ug/ml) dilution for 1 hour at 4° C. After washing un-bound secondary antibody, cells were analyzed by FACS and geometric mean fluorescence was determined and reported. Fluorescence ratio was calculated as follows: Geo mean cHv62.21/Geo mean isotype control=MFR, a measure of fold expression above isotype control.

[1] = biological target: T1, Recombinant human FLT3-Fc / biotinylated FLT3 ligand (Homo sapiens, UniProt P36888); assay: Luminex FLT3 ligand blocking assay; assay type: binding; conditions: biotinylated FLT3 ligand 5 ng/mL; antibody 10 μg/mL; 60 minutes
T1 construct: purchased R and D Systems
Source text: In one experiment, the CHv62.21 MAb of the invention was confirmed to not block FL. Briefly, Recombinant human FLT3-Fc was purchased from R and D Systems. This protein was immobilized onto the surface of activated Luminex microspheres using standard sulfo-NHS/EDC chemistry according to the procedure provided by Luminex. A His-tagged version of the protein, along with several other proteins were conjugated to Luminex microspheres, and served as controls in this procedure.
In addition, FLT3 ligand was also purchased from R and D Systems. The ligand was biotinylated using Thermo Scientific EZ-Link Sulfo-NHS-LC-Biotin, No-Weigh Formula according to the manufacturer's recommendations. After two (2) hours of reacting the protein with Sulfo-NHS-LC-Biotin, unincorporated biotin was removed by dialysis against DPBS.
The ability of FLT3 immobilized onto the surface of the microspheres to bind to its biotinylated ligand was assessed by reacting the microspheres with various concentrations of biotinylated ligand, prepared in buffer containing PBS, 2% BSA, 0.05% Tween 20, and 0.1% sodium azide, for 120 minutes at RT with gentle shaking. At the end of the incubation, the microspheres were aspirated and washed. Biotinylated FLT3 ligand bound to its immobilized receptor was detected with Streptavidin-R-Phycoerythrin (Moss, Inc.). The fluorescence associated with the microspheres was measured with the Luminex instrument.
Finally, to assess the ability of the FLT3 antibodies to potentially block ligand, mixtures were prepared containing biotinylated FLT3 ligand at 5 ng/mL, plus the various antibodies under investigation at 10 μg/mL. These mixtures were applied to the FLT3 immobilized onto the microspheres and incubated for 60 minutes. […] Biotinylated FLT3 ligand bound to its immobilized receptor was detected with Streptavidin-R-Phycoerythrin (Moss, Inc.). The fluorescence associated with the microspheres was measured with the Luminex instrument. Antibodies with the capability to block ligand were observed by reduction in MFI (median fluorescence intensity).

EOL-1 cells = assay: EOL-1 growth with human FLT3 ligand and antibody (Cell Titer Glo, 5 days); assay type: cell-based; conditions: FLT3 ligand 50, 10 or 5 ng/mL, antibody 10, 1, 0.1 μg/mL
Description: The ability of FLT3 antibodies (CHv62.21 and v62-1b37.1) to mediate the effect of human FLT3 ligand was evaluated using the human leukemia EOL-1 cell line, which endogenously expresses FLT3. Isotype control antibody (mLys-1c3.1) was also used. […] The next day, cells were treated with 50, 10 or 5 ng/mL of human FLT3 ligand (in 25 μl of complete media) and 10, 1, 0.1 and 0 μg/mL of test antibody (in 25 μl of complete media). Media alone was used as the untreated control. […] At the end of the incubation period, 100 μl of Cell Titer Glo was added to each well and incubated for 30 minutes, shaking, at room temperature.

B1: CHv62.21: FLT3 MAb, human IgG1/kappa, heavy chain SEQ ID NO: 9, light chain SEQ ID NO: 10, CHO cell ATCC PTA-121831 (antibody, listed as Homo sapiens)
heavy: EVQLVESGGGLVRPGGSLRLSCAASGFTFSGYSINWVRQAPGKGLEWVSSISSSSNYIYYADSVKGRFTISRDNAKNSLYLQMNSLRAEDTAVYYCAREGFIAGTTFDAFDIWGQGTMVTVSS[skipping human IgG1 constant region]
light: DIQMTQSPSSLSASVGDRVTITCRASQGIRNDLGWYQQKPGKAPKRLIYAASSLQSGVPSRFSGSGSGTEFTLTISSLQPEDFATYYCLQHNGFPYTFGQGTKLEIKRTVAAPSVFIFPPSDEQLKSGTASVVCLLNNFYPREAKVQWKVDNALQSGNSQESVTEQDSKDSTYSLSSTLTLSKADYEKHKVYACEVTHQGLSSPVTKSFNRGEC
modifications: CHv62.21 heavy chain; CHv62.21 light chain
OCI-AML2 cells
  Geometric Mean (FACS): 5646
[1]
  blocking of FLT3 ligand binding to FLT3: non ligand blocker; also recorded: non FL blocker
EOL-1 cells
  effect on growth in the presence of FLT3 ligand: Does not Interfere with FL Mediated Cell Proliferation; also recorded: does not have any effect on growth
